What was measured:
[1] = target: full-length NK1R (Homo sapiens, UniProt P25103); test: Real Time Cell Electronic Sensing (RT-CES) impedance, U373MG cells; type: cell-based; settings: SP 100 nM; for effect of colchicine on SP-induced impedance changes: colchicine 10 µM, 1 hour preincubation; for effect of ML-9 on SP-induced impedance decrease: ML9 50 µM
[2] = tested on: myosin light chain 2 (MLC2) (Ser19); test: MLC phosphorylation, Western blot, U373MG cells; type: cell-based, human; settings: 1 hour, SP 100 nM, 1 min
[3] = tested on: U373MG cells; test: SP-induced membrane blebbing in U373MG cells (phase-contrast / DIC / confocal microscopy); type: cell-based, human
[4] = U373MG, colchicine 2 µM pretreatment

Sequence of full-length NK1R (P25103 whole entry): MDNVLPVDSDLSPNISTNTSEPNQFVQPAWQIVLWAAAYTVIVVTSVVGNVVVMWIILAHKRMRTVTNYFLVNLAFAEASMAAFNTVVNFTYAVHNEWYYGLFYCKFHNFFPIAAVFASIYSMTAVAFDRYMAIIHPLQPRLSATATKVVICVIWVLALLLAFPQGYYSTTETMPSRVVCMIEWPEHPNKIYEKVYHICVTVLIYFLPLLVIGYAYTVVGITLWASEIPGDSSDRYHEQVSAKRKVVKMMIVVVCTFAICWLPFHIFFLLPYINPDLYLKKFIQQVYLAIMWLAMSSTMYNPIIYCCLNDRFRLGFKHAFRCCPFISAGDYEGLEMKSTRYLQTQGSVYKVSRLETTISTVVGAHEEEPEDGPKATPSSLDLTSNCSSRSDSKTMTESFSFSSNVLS

COc1ccc2c(c1)CC[C@@H]1[C@@H]2CC[C@]2(C)[C@@H](NCCCCCCN3C(=O)C=CC3=O)CC[C@@H]12 [U73122]
effect of U73122 on SP-induced impedance changes ([1]; U73122 10 µM, 60 min preincubation, three independent experiments): no effect on the changes in impedance

Oc1ccc2ccccc2c1SSc1c(O)ccc2ccccc12 [IPA3, 1, 1′-Dithiodi-2-naphthtol]
effect of IPA3 on MLC phosphorylation ([2]; IPA3 20 µM): did not affect MLC phosphorylation | effect of IPA3 on SP-induced impedance change (in words) ([1]; IPA3 20 µM, 60 min preincubation, * p<0.05): significant decrease in the impedance change | SP-induced impedance change in presence of IPA3 ([1]; IPA3 20 µM, 60 min preincubation, mean ± SEM of three independent experiments): 0.07±0.03

C[C@@H](N)[C@H]1CC[C@H](C(=O)Nc2ccncc2)CC1 [Y27632]
effect of Y27632 on MLC phosphorylation ([2]; Y27632 10 µM): decrease in MLC phosphorylation | effect of Y27632 on SP-induced blebbing ([3]; U373MG, ROCK inhibitor Y27632, SP 100 nM): prevented SP-induced blebbing | direction of impedance change after SP in presence of Y27632 ([1]; Y27632 10 µM, 60 min preincubation): cell impedance increased after treatment with SP | effect of Y27632 on SP-induced impedance decrease ([1]; Y27632 10 µM, 60 min preincubation, three independent experiments): abolished

COc1cc2c(c(OC)c1OC)-c1ccc(OC)c(=O)cc1[C@@H](NC(C)=O)CC2 [colchicine]
cell morphology after colchicine [3, 4]: flat morphology | effect of colchicine on SP-induced blebbing [3, 4]: SP treatment failed to cause the formation of membrane blebs | effect of colchicine on SP-induced impedance changes ([1]; three independent experiments): blocked the changes in impedance | effect of colchicine on SP-induced impedance changes ([1]; three independent experiments, listed as Colchicine): inhibited cell impedance changes

O=S(=O)(c1cccc2c(Cl)cccc12)N1CCCNCC1 [ML-9]
effect of ML9 on MLC phosphorylation ([2]; ML9 10 µM): decrease in MLC phosphorylation | effect of ML-9 on SP-induced bleb formation ([3]; U373MG, MLCK inhibitor ML-9, SP 100 nM): completely blocked bleb formation | effect of ML-9 on SP-induced impedance decrease ([1]; 60 min preincubation, three independent experiments): completely blocked | effect of ML-9 on SP-induced impedance decrease ([1]; 60 min preincubation, three independent experiments, listed as ML9): greatly inhibited

C3 transferase
effect of C3 transferase on SP-induced blebbing [3]: completely blocked membrane blebbing

Reference: paper PMC3179504 (PLoS ONE, 2011)
